Laboratory results reported in PMC8339588.
Substitutions are numbered along the chain they refer to. Read-outs that look alike come from different tables or passages of the source. Results are given in words; binding and its absence hold for the method and conditions named. In cells and extracts the contact can be indirect. Some binding calls cover weakened binding; strength is not graded here. For part of these data: Sequences can lack the tags named with a protein.

Chains of the proteins cited; added tags and fusions are not shown. Lines headed by an entry give the natural chain unless they say otherwise; changes in a name come on top. A line that says so, or that is headed by a name, gives the form on record, which may keep a tag or linker.
UniProt P51148: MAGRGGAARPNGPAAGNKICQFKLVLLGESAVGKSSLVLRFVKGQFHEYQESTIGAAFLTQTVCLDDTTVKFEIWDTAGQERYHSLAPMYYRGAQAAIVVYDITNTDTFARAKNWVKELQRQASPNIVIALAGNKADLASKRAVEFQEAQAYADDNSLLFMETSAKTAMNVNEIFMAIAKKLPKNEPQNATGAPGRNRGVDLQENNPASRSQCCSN
Rab5CΔ (50–58) (pCMV-HA-Rab5CΔ (50–58)) (P51148, form named): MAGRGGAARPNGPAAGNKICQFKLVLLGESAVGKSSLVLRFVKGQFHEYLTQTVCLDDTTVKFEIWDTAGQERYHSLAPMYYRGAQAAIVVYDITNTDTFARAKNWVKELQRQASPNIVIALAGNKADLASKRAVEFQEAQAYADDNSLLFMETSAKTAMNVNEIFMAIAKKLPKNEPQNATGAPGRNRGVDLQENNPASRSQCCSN

T1: TBC1D16 (pCMV-Flag-TBC1D16) (UniProt Q8TBP0)
T1 sequence: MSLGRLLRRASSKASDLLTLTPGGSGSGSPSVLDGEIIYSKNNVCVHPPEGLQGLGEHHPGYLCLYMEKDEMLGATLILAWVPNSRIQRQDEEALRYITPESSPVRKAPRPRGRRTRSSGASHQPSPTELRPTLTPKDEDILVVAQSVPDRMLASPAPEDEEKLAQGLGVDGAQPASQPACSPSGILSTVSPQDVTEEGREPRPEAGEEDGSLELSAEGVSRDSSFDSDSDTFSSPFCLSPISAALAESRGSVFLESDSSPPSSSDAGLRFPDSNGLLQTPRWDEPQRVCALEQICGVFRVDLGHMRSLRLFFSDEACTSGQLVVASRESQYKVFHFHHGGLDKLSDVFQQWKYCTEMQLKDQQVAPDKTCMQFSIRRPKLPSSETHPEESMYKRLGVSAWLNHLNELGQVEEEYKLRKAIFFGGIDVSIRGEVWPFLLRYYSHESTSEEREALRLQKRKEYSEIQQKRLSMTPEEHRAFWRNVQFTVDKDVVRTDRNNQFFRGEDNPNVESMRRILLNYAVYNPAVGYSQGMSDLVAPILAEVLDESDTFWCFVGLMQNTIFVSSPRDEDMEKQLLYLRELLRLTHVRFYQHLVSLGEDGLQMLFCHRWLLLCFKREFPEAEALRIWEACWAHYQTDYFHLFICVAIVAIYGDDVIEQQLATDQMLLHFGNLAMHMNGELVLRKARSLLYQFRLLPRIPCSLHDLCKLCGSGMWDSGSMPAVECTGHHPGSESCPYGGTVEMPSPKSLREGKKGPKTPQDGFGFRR

T2: TBC1D16-Q531A (UniProt Q8TBP0)
T2 sequence: T1 sequence with Q531A

T3: TBC1D16-R431A (UniProt Q8TBP0)
T3 sequence: T1 sequence with R431A

T4: TBC1D16-R494A (UniProt Q8TBP0)
T4 sequence: T1 sequence with R494A

B1: PFV Tas (pCMV-Myc-Tas) (protein, UniProt P14353 1-300)
chain: MDSYEKEESVASTSGIQDLQTLSELVGPENAGEGELTIAEEPEENPRRPRRYTKREVKCVSYHAYKEIEDKHPQHIKLQDWIPTPEEMSKSLCKRLILCGLYSAEKASEILRMPFTVSWEQSDTDPDCFIVSYTCIFCDAVIHDPMPIRWDPEVGIWVKYKPLRGIVGSAVFIMHKHQRNCSLVKPSTSCSEGPKPRPRHDPVLRCDMFEKHHKPRQKRPRRRSIDNESCASSSDTMANEPGSLCTNPLWNPGPLLSGLLEESSNLPNLEVHMSGGPFWEEVYGDSILGPPSGSGEHSVL
B2: PFV Bet (pCMV-HA-Bet) (protein, UniProt P89873 1-482)
chain: MDSYEKEESVASTSGIQDLQTLSELVGPENAGEGELTIAEEPEENPRRPRRYTKREVKCVSYHAYKEIEDKHPQHIKLQDWIPTPEEMIAQKVQNQDLGTILSFDVTCLKSITSLGRNDPGDDPSIMSHVLPVVTPWPMSQDHYAPTLFGILDRYYQGYLKSPATYQTWKFTCQVDPSGKRFMETQFWVPPLGQVNIQFYKNYQILTCCQAVDPFANIFHGTDEEMFDIDSGPDVWCSPSLCFKVIYEGAMGQKQEQKTWLCRLGHGHRMGACDYRKVDLYAMRQGKENPYGDRGDAALQYAYQVKRGCKAGCLASPVLNYKALQFHRTIMADFTNPRIGEGHLAHGYQAAMEAYGPQRGSNEERVWWNVTRNQGKQGGEYYREGGEEPHYPNTPAPHRRTWDERHKVLKLSSFATPSDIQRWTTKALPYGWKVVTESGNDYTSRRKIRTLTEMTQDEIRKRWESGYCDPFIDSGSDSDGPF
B3: PFV Bet (pCMV-His-Bet) (protein, UniProt P89873 1-482)
chain: B2 chain

How the values were obtained:
Experiment in all cases: co-IP; HEK293T cells cotransfected with the two tagged plasmids (3 ug each) for 48 h; lysed in Nonidet P-40 buffer (150 mM NaCl, 1 mM EDTA, 1% NP-40); precipitated with IgG (control) or the indicated antibodies on Protein A/G Plus-Agarose; washed three times with 500 mM NaCl lysis buffer …
[1] = biological target: T1, TBC1D16 (pCMV-Flag-TBC1D16)
[2] = biological target: T2, TBC1D16-Q531A
[3] = biological target: T3, TBC1D16-R431A
[4] = biological target: T4, TBC1D16-R494A
[5] = biological target: Rab5C (pCMV-HA-Rab5C) (UniProt P51148)
[6] = biological target: T1, TBC1D16 (pCMV-Flag-TBC1D16); remark: listed apart in the source

Molecule | binding [1] | binding [5] | binding [6] | further results
Rab5C (pCMV-HA-Rab5C) (from UniProt P51148 1-216) | binds | – | – | binding [2]: no binding; binding [3]: binds; binding [4]: no binding
Rab5CΔ (50–58) (pCMV-HA-Rab5CΔ (50–58)) (from UniProt P51148 1-216) | no binding | – | – | –
B1 | – | no binding | no binding | –
B2 | – | – | no binding | –
B3 | – | no binding | – | –
